# According to publication PMC6919601, “Identification of Plasmodium dipeptidyl aminopeptidase allosteric inhibitors by high throughput screening” (PLoS ONE, 2019):
# Values joined by “and” are separate entries in the source; they are usually repeats but may differ in a detail not shown here. Equal entries are not always repeated. About 230 (0.21%) of roughly 110,000 compounds showed an effect of 50% or more. Some of the results follow.
# Molecular target: DPAP1 (Plasmodium falciparum, UniProt Q8IIJ9)
# Sequence (Q8IIJ9 whole entry, looked up): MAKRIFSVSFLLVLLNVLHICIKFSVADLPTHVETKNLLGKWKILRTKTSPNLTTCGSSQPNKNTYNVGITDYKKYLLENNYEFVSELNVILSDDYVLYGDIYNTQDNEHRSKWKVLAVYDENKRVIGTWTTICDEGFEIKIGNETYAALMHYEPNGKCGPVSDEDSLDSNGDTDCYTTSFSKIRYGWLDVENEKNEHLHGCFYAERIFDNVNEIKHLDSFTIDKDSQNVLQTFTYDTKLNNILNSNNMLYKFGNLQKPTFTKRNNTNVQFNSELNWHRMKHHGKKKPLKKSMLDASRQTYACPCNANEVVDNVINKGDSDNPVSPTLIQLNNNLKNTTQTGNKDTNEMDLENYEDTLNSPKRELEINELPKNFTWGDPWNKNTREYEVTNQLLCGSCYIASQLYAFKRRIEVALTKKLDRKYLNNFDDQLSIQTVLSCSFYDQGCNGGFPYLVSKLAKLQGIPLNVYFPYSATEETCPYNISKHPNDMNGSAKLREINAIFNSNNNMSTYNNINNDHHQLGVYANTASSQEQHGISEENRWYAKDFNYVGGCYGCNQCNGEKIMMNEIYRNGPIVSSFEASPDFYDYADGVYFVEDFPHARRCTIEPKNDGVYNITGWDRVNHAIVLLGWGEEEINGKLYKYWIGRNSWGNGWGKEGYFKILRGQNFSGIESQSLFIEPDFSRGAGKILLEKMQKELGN
# Assay: primary screen, percent inhibition; read by cleavage of a fluorogenic dipeptide substrate; higher = more effect of the substance
# Set-up: species or system P. falciparum D10 trophozoite lysates; single well
# 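Also: 30 min substrate incubation versus DMSO and 10 µM JCP410 controls.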
row,SMILES,% Inhibition @ 10 uM
1,Cc1cccn2c(=O)c3cc(C(=O)NCc4ccccc4Cl)n(C)c3nc12,0.522%
2,Cc1ccc2oc(=O)c3cnn(CC(=O)Nc4cccnc4Cl)c3c2c1,-1.7%
3,CCc1ccc2oc(-c3cccc(N)c3)nc2c1,-3.9%
4,COc1ccc(CCNC(=O)CSc2nc(O)cc(O)n2)cc1OC,1.96%
5,O=C(N/C(=C/c1cccs1)C(=O)N1CCCCCC1)c1cccs1,3.72%
6,Cc1nn(-c2ccccc2)c(N2CCCCC2)c1C=O,12.8%
7,O=P(O)(CN1CCOCC1)C1CCCCC1O (centres unmarked),0.132%
8,CC1CCCC(NC(=O)C2CCCN2S(=O)(=O)c2cccc3nsnc23)C1C (centres unmarked),2.72%
9,Cc1ccc(OCC(=O)Nc2nnc(C(C)C)s2)c(Br)c1,-6.69%
10,CC(C)CCn1c(CCNC(=O)C2CCCCC2)nc2ccccc21,-1.74%
11,O=C1N=C(Nc2ccccc2Cl)S/C1=C/c1ccco1,-9.82%
12,CCCCn1c(N)c(C(=O)OCC)c2nc3ccccc3nc21,6.08%
13,N#Cc1ccccc1NC(=O)Nc1ccc2ccccc2c1,0.847%
14,CC1CCCC(C)N1CCCNC(=O)Cn1ncc2c3ccccc3n(C)c2c1=O (centres unmarked),-3.67%
15,CC(C)COC(C(=O)O)(c1ccccc1)c1ccccc1,1.43%
16,CCOC(=O)c1sc(NC(=O)c2onc(C)c2Cl)c(C(=O)OCC)c1C,-3.45%
17,CCN(CC)c1ccc(NC(=O)/C=C\C(=O)O)cc1,-1.5%
18,CCOC1C(OCC)N(S(=O)(=O)c2ccccc2)CCN1S(=O)(=O)c1ccccc1 (centres unmarked),-3.48%
19,CC1CCc2c(sc(NC(=O)c3ccccc3F)c2C(N)=O)C1 (centres unmarked),-0.425%
20,Cc1ccc2nc(NC(=O)C3CCCN(S(=O)(=O)c4c[nH]cn4)C3)sc2c1 (centres unmarked),2.72%
21,Cc1cc2oc(C(=O)NCC(c3ccco3)N3CCCC3)c(C)c2cc1Cl (centres unmarked),5.2%
22,Cc1ccc2nc3[nH]c(=O)[nH]c(=O)c3nc2c1,-7.27%
23,O=C(Cc1cccc2ccccc12)Nc1ccc(S(=O)(=O)N2CCCCC2)cc1,-6.05%
24,Cc1ccc(N(C(=O)Nc2ccccc2Cl)C(CC(=O)C2CC2)c2ccccc2)cc1 (centres unmarked),-2.91%
25,Cc1cccc2sc(NC(=O)CNS(=O)(=O)c3cccs3)nc12,-2.12%
26,CCOc1ccccc1CNC(=O)C1CCN(c2nn3c(=O)cc(C)nc3s2)CC1,3%

row,SMILES,% Inhibition @ 10 uM
1,COc1ccc2c(CNCCC3=CCCCC3)c(C(=O)O)n(Cc3ccc(C)cc3)c2c1,-0.153%
2,O=c1oc2c(Br)cc(Br)cc2cc1-c1nc(-c2cccs2)cs1,-0.771%
3,Cc1cc(/C=C2/SC(=S)NC2=O)c(C)n1-c1ccc(F)cc1,2.16%
4,Cc1[nH]c2ccc(Cl)cc2c1CC(=O)O,-4.42%
5,CC(=O)c1c(C)[nH]c(C(=O)N(CCc2ccccc2)Cc2ccccc2)c1C,2.9%
6,Cc1nc2c(c(C)c1CCC(=O)NC1CCN(Cc3ccccc3)CC1)c(=O)n(C)c(=O)n2C,0.44%
7,CCCCCCOc1ccc(C(=O)O)cc1C#N,-2.51%
8,CCCc1nc(N)c(C#N)c(-c2ccco2)c1CC,1.26%
9,CCC(C)/N=C(\C)C1=C(O)CC(C)(C)CC1=O (centres unmarked),-3.19%
10,Cn1ncc(Cl)c1C(=O)Nc1nc2ccccc2n1C,5.31%
11,COc1ccccc1C1C2=C(O)CC(C)(C)CC2=Nc2nc(C(F)(F)F)nn21 (centres unmarked),-1.62%
12,COc1ccc(C(=O)CC(=O)c2ccc(Br)cc2)cc1,-2.46%
13,O=C(Cn1ccc2cc(S(=O)(=O)N3CCCC3)ccc21)NCCc1ccccc1,-0.177%
14,CC1CC(C)(C)NC(=S)N1CCC(=O)N1CCN(Cc2ccccc2)CC1 (centres unmarked),-3.31%
15,CCN1CCN(CCC(C)c2ccccc2)CC1 (centres unmarked),1.08%
16,O=C(Nc1ccc2[nH]c(-c3cccs3)nc2c1)c1ccco1,0.843%
17,CCOC(=O)c1c(NC(=O)CN2CCOCC2)sc2c1CCCC2,-9.49%
18,CC(Oc1ccccc1)C(=O)Nc1ccccc1Cl (centres unmarked),-2.65%
19,O=C(COc1ccccc1Cl)NCCOc1nc(N2CCOCC2)nc(N2CCOCC2)n1,-3.08%
20,Cc1ccc(-c2cc(C(=O)NCc3cccnc3)[nH]n2)cc1,-1.3%
21,COc1ccc(C(CNC(=O)c2cc3ccccc3oc2=O)N2CCCCC2)cc1 (centres unmarked),0.00706%
22,COc1ccc(N(CC(=O)Nc2ccccc2Cl)S(=O)(=O)c2ccc(C)cc2)c(OC)c1,-3.39%
23,CC(=O)Nc1ccc(NC(=O)CN(c2ccccc2F)S(=O)(=O)c2ccccc2)cc1,9.96%
24,COCc1cc(C)nc(S)c1C#N,43.7% and 44.2%
25,CCN(CC)CCOc1c(Cl)cccc1Cl,-0.711%
26,CCC(Cc1ccccc1)NC(=O)CS(=O)(=O)Cc1nc(-c2ccc(C)cc2)oc1C (centres unmarked),-5.58%

row,SMILES,% Inhibition @ 10 uM
1,O=S(=O)(c1ccccc1)c1nnn2c1nc(N1CCOCC1)c1cc(Cl)ccc12,0.291%
2,CCOC(=O)c1c(S(=O)(=O)N2CCN(C3CCCCC3)CC2)c(C)n(C)c1C,3.03%
3,O=C(CCc1nc2ncccc2c(=O)n1Cc1ccccc1)NCCc1c[nH]c2ccccc12,-2.45%
4,COc1cc(NC2CCC(C)CC2)cc(OC)c1OC (centres unmarked),-0.0953%
5,COc1ccc(N2C(=O)c3ccc(C(=O)O)cc3C2=O)c([N+](=O)[O-])c1,1.9%
6,O=C(NC(c1ccccc1)c1ccccc1)c1ccccc1Br,0.247%
7,Cc1ccc(CC(=O)Nc2ccc(S(=O)(=O)Nc3ncccn3)cc2)cc1,-2.66%
8,O=C(Cn1ncc2c3ccccc3nc-2c1O)NCc1ccc(F)cc1,-4.77%
9,CC(C)CCNS(=O)(=O)c1ccc(-c2cc(C(F)(F)F)no2)s1,1.56%
10,COc1ccccc1-c1c(C)nn2c(SCC(=O)N3CCN(C)CC3)cc(C)nc12,3.29%
11,Clc1ccc(-n2ncnc2-c2ccccn2)cc1,2.05%
12,C[C@@H](CC(NC(=O)c1ccc(-c2ccccc2Cl)cc1)C(=O)N[C@H]1CCOC1(O)c1nc2ccccc2o1)c1ccccc1 (some centres unmarked),-0.207%
13,O=C(C1CCCO1)N1CCN(c2cccc(C(F)(F)F)c2)CC1 (centres unmarked),-3.18%
14,COc1ccc(/C=C2/SC(N3CCCCC3)=NC2=O)cc1,3.69%
15,Cn1c(=O)c2cnc(-c3ccccc3)nc2n(C)c1=O,-3.53%
16,O=C(Cc1ccccc1)NCC1CCCO1 (centres unmarked),0.273%
17,O=C(/C=C/c1ccc2ccccc2n1)c1cccnc1,-0.292%
18,CCCCCn1c(CCCNC(=O)c2ccco2)nc2ccccc21,-4.82%
19,COCCN1C(=O)c2[nH]nc(-c3ccccc3O)c2C1c1cccc(Br)c1 (centres unmarked),2.02%
20,CN(C)CCCN(C(=O)CN1C(=O)CCC1=O)c1nc2c(F)cc(F)cc2s1,3.48%
21,Cc1ccc(NC(=O)c2sc3nc(N)c(C#N)cc3c2N)cc1,-2.81%
22,Cc1ccc2oc(=O)c3cc(C(=O)N(C)Cc4ccccc4)sc3c2c1,4.68%
23,Cc1ccc2onc(CNC(=O)NCC3CCCO3)c2c1 (centres unmarked),0.0147%
24,O=C1OC(c2ccc(Br)cc2)=N/C1=C\c1coc2c(Cl)cc(Cl)cc2c1=O,7.89%
25,CC1(C)CCCC(C)(C)N1CC(O)COc1ccccc1 (centres unmarked),-8.28%
26,CC(=O)c1ccc(NC(=O)c2cc3nc(-c4ccc5c(c4)OCO5)cc(C(F)(F)F)n3n2)cc1,-5.98%

row,SMILES,% Inhibition @ 10 uM
1,CC(C)C1Cc2c(sc3nc(SCc4ccccc4)nc(N)c23)CO1 (centres unmarked),-1.52%
2,CC1CCN(S(=O)(=O)N2CCC(C(=O)NCCCN3CCCC3)CC2)CC1,-3.12%
3,COc1ccc2c(CNCCc3ccccc3)c(C(=O)O)[nH]c2c1,-5.37%
4,CCOC(=O)c1c(NC(=O)c2c(Br)cnn2C)c(C#N)nn1-c1ccccc1,-3.41%
5,Cc1nc2nc(-c3ccc(Cl)cc3Cl)nn2c(C)c1CCC(=O)NCc1ccco1,-6.09%
6,COc1ccc(-c2ncnn2-c2ccncc2)cc1,-0.0953%
7,CN(C)c1nc(N(C)C)nc(N2CC(=O)N(c3ccccc3)C2=N)n1,-7.31%
8,C=C(Br)C[C@H](NC(=O)OC(C)(C)C)C(=O)NCC#N,-3.04%
9,Cc1cccc(NC(=O)CC(=O)c2ccc([N+](=O)[O-])cc2)c1,-11.1%
10,C=CCO/C(O)=C1/C(C)=Nc2ncnn2C1c1ccc(OC)c(OC)c1 (centres unmarked),3.32%
11,O=C(O)CCC(=O)Nc1ccc(N2CCN(c3ccccc3)CC2)cc1,0.245%
12,CCc1cccc(NC(=O)c2c(-c3ccccc3)noc2C)c1,1.57%
13,Cc1cc(C)cc(-n2nnc(-c3nc(-c4cccnc4)no3)c2N)c1,1.4%
14,c1cnc2c(Oc3ncnc4sc5c(c34)CCCC5)cccc2c1,2.86%
15,Cc1cccnc1Nc1nc(-c2ccncc2)cs1,-1.69%
16,O=S(=O)(NCCN1CCCC1)c1cccc2nsnc12,1.9%
17,COc1ccc(S(=O)(=O)N(CC(=O)Nc2ccccc2C(N)=O)c2ccccc2)cc1,-4.61% and -4.12%
18,CCC(C)Sc1nc(O)cc(=O)n1C (centres unmarked),1.91%
19,COC(=O)/C(=C\c1c[nH]c2ccccc12)NC(C)=O,-3.58%
20,Oc1ccc(Nc2ccc(O)cc2)cc1,-0.999%
21,COc1cc(OC)cc(-n2cc(-c3cc4ccccc4oc3=O)nc2S)c1,46.4%
22,CCOC(=O)N1CCN(C(=O)CSc2nnc(CNC(=O)c3ccc(OC)cc3)o2)CC1,4.36%
23,C/C(=C1\C(=O)N(c2nc3ccccc3s2)N=C1C(F)(F)F)N1CCC2CCCN2C1 (centres unmarked),4.32%
